# Test results published in the BET-seq Pho4 binding data (Le et al. 2018).
# The other results are listed elsewhere or left out. These are noisy estimates, calculated here from bound and input reads.
# Target: T1, Pho4 (S. cerevisiae) (UniProt P07270)
# T1 sequence: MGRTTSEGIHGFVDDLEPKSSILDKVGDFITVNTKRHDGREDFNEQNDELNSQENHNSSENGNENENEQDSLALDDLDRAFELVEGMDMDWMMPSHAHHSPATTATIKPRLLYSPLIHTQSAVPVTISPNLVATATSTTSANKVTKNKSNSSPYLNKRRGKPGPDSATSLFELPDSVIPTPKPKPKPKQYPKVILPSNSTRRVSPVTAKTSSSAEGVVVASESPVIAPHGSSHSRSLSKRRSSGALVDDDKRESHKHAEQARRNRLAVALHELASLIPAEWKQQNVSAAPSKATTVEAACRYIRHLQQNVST
# Assay: relative binding free energy (BET-seq); higher = weaker binding
# Settings: reference: library average
row,Sequence,relative binding free energy [kcal/mol]
1,AGCTGCACGTGTGTAT,-0.07
2,GATTGCACGTGTGAGT,0.21
3,ATCGTCACGTGTGAGG,0.16
4,GGGTACACGTGATTCG,0.15
5,CGGGTCACGTGTGTGT,0.08
6,CGTTGCACGTGTCTGA,0.2
7,TTTTGCACGTGAGAGA,0.26
8,AATCGCACGTGAGGTT,0.25
9,GTAATCACGTGGGGAC,0.12
10,GCTGTCACGTGCTGTG,0.11
11,GGCGTCACGTGGAGGC,0.11
12,TGTATCACGTGGAATG,0.23
13,GTACTCACGTGGTATG,0.01
14,TTTGTCACGTGGGAGG,-0.03
15,GATCGCACGTGTGAGG,0.22
16,TATTACACGTGCGTGT,0.05
17,TTTCGCACGTGGGTGG,-0.22
18,AATTTCACGTGTAAGG,0.3
19,ACGGGCACGTGATTTA,0.16
20,GGGGGCACGTGGGGGA,-0.11
21,AGGCTCACGTGATTAT,0.36
22,GTTCACACGTGTGTGG,0.25
23,AGATTCACGTGCGTTA,0.17

row,Sequence,relative binding free energy [kcal/mol]
1,CGTATCACGTGCTTTT,0.28
2,GTAAACACGTGTTGCG,0.09
3,AGGTACACGTGGGCAT,-0.14
4,AGTGGCACGTGATCGT,-0.19
5,ATTATCACGTGAGGGG,0.33
6,ATAATCACGTGTAAGG,0.13
7,GATCGCACGTGGTTTT,0.1
8,AGTTGCACGTGTTAAG,0.18
9,GTAATCACGTGATTTG,0.28
10,GTGGTCACGTGCGGGT,0.13
11,GGAAACACGTGGGAGG,-0.05
12,GGTTACACGTGCGTCG,0.17
13,TGGCGCACGTGGTAGC,-0.04
14,CGATGCACGTGATGGG,-0.02
15,TTTGGCACGTGGCATG,-0.25
16,GTCATCACGTGGGGGA,-0.01
17,AAGTGCACGTGGTAAG,0.03
18,ATTGTCACGTGCCGTG,0.12
19,ACGGGCACGTGGTTTG,-0.19
20,ACTGGCACGTGATTGT,-0.06
21,ATGTTCACGTGCTGAT,0.23
22,GGTTTCACGTGCTGTA,0.39
23,GATATCACGTGGAGTG,0.19

row,Sequence,relative binding free energy [kcal/mol]
1,TTTCTCACGTGGTTCG,0.19
2,AGAACCACGTGTGTGG,0.04
3,CGCGTCACGTGTGTGC,0.08
4,TTTCTCACGTGATGCG,0.41
5,TCAGTCACGTGAAAGG,0.24
6,AATGTCACGTGATTAG,0.09
7,CTGGTCACGTGAGGGC,0.26
8,GGCAGCACGTGTGGGC,0.06
9,TGGTTCACGTGTCTGA,0.34
10,TGCGTCACGTGATGCG,0.29
11,GGAGTCACGTGAAGGT,0.37
12,TGGTGCACGTGTGGTG,0.1
13,ATATACACGTGGATGC,0.2
14,TATAACACGTGTAGGT,-0.05
15,TGATCCACGTGGAGTT,0
16,TGTAGCACGTGGTGTA,-0.14
17,TGGGTCACGTGTAGCT,0.15
18,GGTGTCACGTGTGTGA,0.19
19,TTTTACACGTGAATTG,0.29
20,TGGTCCACGTGCGCGG,-0.19
21,TGTGACACGTGCGTCG,-0.01
22,AGGTTCACGTGATTGA,0.38
23,AATAGCACGTGGAGGG,-0.23

row,Sequence,relative binding free energy [kcal/mol]
1,AGATTCACGTGGAGAG,0.37
2,TAAGACACGTGTTAGG,0.04
3,CTGGGCACGTGAGATT,0.09
4,GGGTTCACGTGGCAGG,0.25
5,ATTATCACGTGTTGTC,0.03
6,GCAGGCACGTGGGGAG,-0.23
7,GGGGTCACGTGCGAGT,0.2
8,TCACGCACGTGATGGG,0.05
9,GGCTGCACGTGTAGGG,-0.01
10,TTACGCACGTGTTGTT,-0.08
11,CGGGACACGTGTATGG,0.12
12,GGGTACACGTGTAGTG,0.07
13,GATGTCACGTGGGAGT,0.16
14,GTTGGCACGTGAAGTT,0.19
15,TGGTTCACGTGTGCAG,0.19
16,AGTGTCACGTGGGATC,-0.03
17,TATGTCACGTGGGGTA,-0.06
18,AATTTCACGTGGTTAT,0.24
19,TGCGGCACGTGTAATT,0.02
20,TGGCTCACGTGGTTTG,0.21
21,AGTAGCACGTGATTTT,0.05
22,GGTTCCACGTGGTAGT,0.09
23,GATGTCACGTGTAGTC,0.29

row,Sequence,relative binding free energy [kcal/mol]
1,TGTTGCACGTGGACGG,0.08
2,TTTTCCACGTGCTGGT,0.05
3,AGTGACACGTGTATGG,-0.08
4,TTTTACACGTGGCAAG,0.08
5,GACGGCACGTGTGGTG,0.08
6,TGCGTCACGTGTCTTG,0.14
7,TTTATCACGTGTCGTC,0.33
8,AATCGCACGTGAGGGT,-0.07
9,TGTTTCACGTGTGAGC,0.31
10,TTGGGCACGTGTCTTA,-0.11
11,TTGGCCACGTGTATAG,-0.05
12,AATGACACGTGGTGGT,-0.19
13,AATGACACGTGGAAGG,0.22
14,AGTAGCACGTGCGAGG,-0.12
15,TGTGTCACGTGAGAGA,0.23
16,GTATGCACGTGGTGTC,-0.1
17,ACGTTCACGTGGTTGA,0.17
18,ATCGTCACGTGATGGC,0.33
19,GAAGTCACGTGTTCGG,0.22
20,TTCTGCACGTGTCGGG,0.17
21,TAGGGCACGTGGCAGA,-0.18
22,GGAAACACGTGTAAGT,0.08
23,TATTTCACGTGAAGTA,0.43
